The text below walks through data of patent US5242908A, “Use of benzylphosphonic acid derivatives for the treatment of diseases caused by viruses” (priority 1990, dated 1993).

Where two headings read alike, the source gives them in different places.

Data set [1] concerns Friend leukemia virus (FLV). Type of data set: in vivo, NMRI mice. The note with it: once per day, 10 days.
For data set [2], the system named is myxoviruses (influenza A2). The data set can be described thus: microbe, parasite or virus in culture. The note with it: read-out: Influenza A2 MIC (minimum inhibitory concentration).
For data set [3], the system named is Influenza A2. The note with it: twice daily for 2.5 days; for Survivors: groups of 5 mice.

For the compound `Cc1ccccc1CP(=O)(O)O` [O, di-triethylammonium 2-methylbenzylphosphonate], the “FLV Survival rate” value in data set [1] (ip 10 mg/kg) and in data set [1] (ip 30 mg/kg) was 90% throughout. Also, the values for the Relative spleen weight in data set [1] (ip 10 mg/kg) and in data set [1] (ip 30 mg/kg) were 6.32% and 5.06%, respectively. For the same compound, the MIC in data set [2] worked out at 14.8 µg/mL. The values for the Survivors in data set [3] (po 0.25 mg/kg), in data set [3] (po 2.5 mg/kg) and in data set [3] (po 25 mg/kg) were 5, 3 and 3, respectively. The Average survival time was determined as 8.5 days in data set [3] (po 2.5 mg/kg) and 9.0 days in data set [3] (po 25 mg/kg).
As for `CCOP(=O)(Cc1cc(C)ccc1C)OCC` [K, diethyl 2,5-dimethylbenzylphosphonate], the “FLV Survival rate” value in data set [1] (po 15.5 mg/kg) is reported as 90%. In data set [1] (po 15.5 mg/kg), this compound had a Relative spleen weight of 9.02%. The results for the Average survival time in data set [3] (po 0.25 mg/kg), in data set [3] (po 2.5 mg/kg) and in data set [3] (po 25 mg/kg) were 6.0 days, 7.0 days and 6.5 days, respectively. Besides, the Survivors in data set [3] (po 0.25 mg/kg) is 4; in data set [3] (po 2.5 mg/kg) it was 2; in data set [3] (po 25 mg/kg), 3.
Turning to `COP(=O)(Cc1ccccc1C)OC` [A, dimethyl 2-methylbenzylphosphonate], the “FLV Survival rate” value in data set [1] (ip 50 mg/kg), in data set [1] (po 15.0 mg/kg) and in data set [1] (po 73.5 mg/kg) was 100% each time. Besides, the Relative spleen weight is listed as 7.22% in data set [1] (ip 50 mg/kg), 6.93% in data set [1] (po 15.0 mg/kg) and 6.15% in data set [1] (po 73.5 mg/kg). The Average survival time in data set [3] (po 0.25 mg/kg) is on record as 6.0 days; in data set [3] (po 2.5 mg/kg), 7.0 days; in data set [3] (sc 0.25 mg/kg) it was 7.0 days; in data set [3] (sc 2.5 mg/kg), 7.0 days; in data set [3] (sc 25 mg/kg) it was 7.0 days. For the same compound, the Survivors was 3 in data set [3] (po 0.25 mg/kg); 4 in data set [3] (po 2.5 mg/kg); 5 in data set [3] (po 25 mg/kg); 2 in data set [3] (sc 0.25 mg/kg); 4 in data set [3] (sc 2.5 mg/kg); 3 in data set [3] (sc 25 mg/kg).
In the case of `CCOP(=O)(Cc1ccccc1[N+](=O)[O-])OCC` [U, Diethyl 2-nitrobenzylphosphonate], in data set [1] (ip 50 mg/kg), the “FLV Survival rate” value stood at 90% and the Relative spleen weight is recorded as 7.56%. In data set [3] (sc 0.25 mg/kg), the Average survival time is reported as 7.0 days and the Survivors turned out to be 4. In data set [3] (sc 2.5 mg/kg), this compound came in with an Average survival time of 7.0 days and a Survivors of 4. In data set [3] (sc 25 mg/kg), this compound had an Average survival time of 7.3 days and a Survivors of 2.
Take `CCOP(=O)(Cc1ccccc1C)OCC` [E, diethyl 2-methylbenzylphosphonate]: the “FLV Survival rate” value in data set [1] (ip 50 mg/kg) amounted to 90%; in data set [1] (po 16.5 mg/kg) it was 100%; in data set [1] (po 77.5 mg/kg), 100%. Moreover, the Relative spleen weight in data set [1] (ip 50 mg/kg) is recorded as 4.83%; in data set [1] (po 16.5 mg/kg), 6.94%; in data set [1] (po 77.5 mg/kg), 8.54%. Further, the Survivors is 5 in data set [3] (po 2.5 mg/kg); 5 in data set [3] (po 25 mg/kg); 2 in data set [3] (po 250 mg/kg); 3 in data set [3] (sc 2.5 mg/kg); 2 in data set [3] (sc 25 mg/kg); 0 in data set [3] (sc 250 mg/kg). The Average survival time was 2.3 days in data set [3] (po 250 mg/kg), 7.0 days in data set [3] (sc 2.5 mg/kg) and 6.3 days in data set [3] (sc 25 mg/kg). Further, the “toxic (printed in the Average survival time column)” value in data set [3] (sc 250 mg/kg) is recorded as “toxic”.
On to `CCOP(=O)(Cc1ccccc1Br)OCC` [C, diethyl 2-bromobenzylphosphonate], for which the “FLV Survival rate” value in data set [1] (ip 50 mg/kg), in data set [1] (po 16.0 mg/kg) and in data set [1] (po 75.0 mg/kg) was 100% in each case. The Relative spleen weight is on record as 6.55% in data set [1] (ip 50 mg/kg), 6.5% in data set [1] (po 16.0 mg/kg) and 6.47% in data set [1] (po 75.0 mg/kg). Besides, the Average survival time is reported as 8.0 days in data set [3] (po 0.25 mg/kg), 8.0 days in data set [3] (po 2.5 mg/kg) and 7.0 days in data set [3] (po 25 mg/kg). The Survivors in data set [3] (po 0.25 mg/kg) was 1; in data set [3] (po 2.5 mg/kg) it was 4; in data set [3] (po 25 mg/kg), 4.
